From PubChem BioAssay AID1508642 (National Center for Advancing Translational Sciences (NCATS), 2021)
Out of some 43,000 compounds screened, about 200 (0.47%) were called active. Roughly 12% stayed inconclusive and do not appear here. The call rests on the fitted dose curve; in most records, active means well fitted cell-killing curve with a large enough effect; inconclusive means small, poorly fitted or top-dose-only effect, or effect the other way; inactive means flat fitted curve, though single readings scatter. This is one part of the list.

Test: Cell viability qHTS assay in S16 Pmp22-F2sN cells; further: nearly all actives have a fitted effect of over 65% in size
Conditions: S16 Pmp22-F2sN Schwann cells (luciferase reporters placed in the Pmp22 gene) viability, CellTiter-Glo, 24 h; series mostly up to 57.5 µM; activity change, negative = cytotoxicity: at the top concentration
Method in brief: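 Seed 500-1,000 S16 Pmp22-F2sN cells per well in phenol-red-free DMEM with 10% heat-inactivated FBS; pin-add 23 nL compound; incubate 24 h at 37C; add CellTiter-Glo, wait 15 min protected from light; read luminescence.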
On the % scale 0 is the no-effect control and ±100 the full control effect.

SMILES	activity change, negative = cytotoxicity
COc1ccc(OC)c(NC(=O)Cn2c(CCC(=O)O)ccc2-c2ccccc2)c1	inactive: 9.8%
CC(C)CCN1C(=O)c2ccccc2CC1(C)C(=O)NC1CCCCC1 (stereo not given)	inactive: 5.22%
Cc1cccc(N(C)C(=O)c2cc3c(=O)oc4ccc(C)cc4c3s2)c1	inactive: 4.9%
O=C(Nc1c(C(=O)N2CCN(c3ccccc3)CC2)oc2ccccc12)c1ccccc1F	inactive: 9.84%
CCOc1ccc(-n2nc3ccc(NC(=O)c4ccc(C)cc4C)cc3n2)cc1	inactive: 7.99%
Cc1ccc(CCNC(=O)c2cc3cc(S(=O)(=O)N4CCCCC4)ccc3n2C)cc1	inactive: -0.84%
CC1CC(=O)N(CC(=O)Nc2ccc(OC(F)(F)F)cc2)c2ccccc2S1 (stereo not given)	inactive: 2.68%
CCCN1CCN(C(=O)Cn2ncc3c4ccccc4n(Cc4cccc(Cl)c4)c3c2=O)CC1	inactive: -4.43%
Cc1cc(OCC(=O)Nc2nc3c(s2)CCCC3)cc(C)c1Cl	inactive: 3.32%
CCOC(=O)c1ccccc1NC(=O)COc1cc(=O)n(CC)c2ccccc12	inactive: 11.7%
Cc1ccccc1C(=O)n1nc(-c2cccnc2)nc1NCc1ccc(F)cc1	inactive: -1.98%
CCN(CCCNC(=O)Cn1ncc2c3ccccc3n(C)c2c1=O)c1cccc(C)c1	inactive: 24.6%
COc1cc(OC)c(NC(=O)Cn2cnc3c(nc4n3CCCCC4)c2=O)cc1Cl	inactive: 2.49%
O=C(CN1CCN(C2CCCCC2)C(=O)C1=O)Nc1ccc(Cl)cc1	inactive: 1.35%
COc1ccc(NC(=O)CC(C)S(=O)(=O)c2ccc3c(c2)NC(=O)CO3)cc1OC (stereo not given)	inactive: 5.68%
Cc1cccc(C)c1NC(=O)Cn1c(=O)cc(C)c2c(C)nn(-c3cccc(Cl)c3C)c21	inactive: -10.3%
COc1ccc(Cl)cc1NC(=O)c1sc2nc3c(cc2c1N)CN(C)CC3	inactive: 19.1%
CCOc1ccccc1NC(=O)Cn1c(=O)n(Cc2ccccc2)c(=O)c2c3c(sc21)CN(C(C)=O)CC3	inactive: 14.3%
O=C1CCCc2[nH]c(=O)c(-c3nc(-c4cccc([N+](=O)[O-])c4)cs3)cc21	inactive: -17.2%
COc1ccc(-c2nc(CNC(=O)NC3CCCCC3)c(C)o2)c(OC)c1	inactive: 7.53%
CC(=O)c1ccc(NC(=O)Cn2c(=O)oc3cc(S(=O)(=O)N4CCCCC4)ccc32)cc1	inactive: 0.617%
CC1=C(c2ccc(C)cc2)S(=O)(=O)N(Cc2ccc(C(=O)NCc3ccccc3F)cc2)C1=O	inactive: -8.34%
O=S(=O)(NCCc1cn2ccsc2n1)c1ccc(Cl)cc1	inactive: 7.32%
O=C(CN1C(=O)COc2ccc(S(=O)(=O)N3CCOCC3)cc21)N1CCN(c2ccc(Cl)cc2)CC1	inactive: 23.7%

SMILES	activity change, negative = cytotoxicity
CCCCCCc1cc2cc(-c3cn4c(n3)sc3cc(OC)ccc34)c(=O)oc2cc1O	inactive: 7.55%
CCOC(=O)c1cc2c(=O)n3ccccc3nc2n(Cc2ccco2)c1=NC(=O)c1ccc(F)cc1	inactive: -27.5%
O=C(CCCn1c(=O)[nH]c2ccccc2c1=O)N1CCN(c2ccccc2)CC1	inactive: -1.87%
Cc1cc(C)c(/C=C/c2onc(C)c2S(=O)(=O)N2CCC(C(=O)Nc3ccc(Cl)cc3C)CC2)c(C)c1	inactive: 1.18%
O=C(COCc1cc(-c2cccs2)on1)NCc1cccc(Cl)c1	inactive: 13.9%
COc1cc(NC(=O)c2nn(-c3ccc(F)cc3)c(=O)n(C)c2=O)cc(OC)c1OC	inactive: -23.6%
CCn1c(C(=O)N2CCC(C(=O)NCCCOC)CC2)cc2sccc21	inactive: 4.91%
Cc1cn(S(=O)(=O)c2ccc(F)c(Cl)c2)cn1	inactive: 15.4%
O=C(Cn1c(=O)n(CCc2ccccc2)c(=O)c2c3c(sc21)CCCC3)Nc1ccc(F)c(F)c1	inactive: 14.4%
Brc1ccc(CN2CCc3nc(N4CCN(c5ncccn5)CC4)ncc3C2)cc1	inactive: -2.3%
CCCc1nnc(NC(=O)Cc2coc3ccc(C)cc23)s1	inactive: -5.29%
COc1ccc(NC(=O)CSc2nc3c(c(=O)[nH]2)CCC3)cc1	inactive: 3.96%
CCC1CCc2nc3sc(C(=O)Nc4ccc(F)c(F)c4)c(N)c3cc2C1 (stereo not given)	inactive: 9.46%
CCOC(=O)c1c(C)c(C(=O)NCc2ccc(Cl)cc2)c(C)n1CC	inactive: -0.424%
CC(C)c1ccccc1Oc1c(C(F)(F)F)oc2c(CN3CCN(C)CC3)c(O)ccc2c1=O	inactive: -22.9%
COc1ccc(NCc2cc3ccc(OC)cc3n(CC(=O)Nc3cccc(OC)c3)c2=O)cc1	inactive: -0.0788%
Cc1ccc(CNC(=O)c2cn(C)c3ccc(S(=O)(=O)N4CCOCC4)cc3c2=O)cc1	inactive: 4.77%
CCOc1ccc(-c2nc(CNC(=O)Nc3ccccc3)c(C)o2)cc1	inactive: 0.806%
COc1ccccc1N1CCN(C(=O)c2cc3c(=O)oc4ccc(C)cc4c3s2)CC1	inactive: -3.35%
Cc1ccccc1NC(=O)CSc1nc2ccccc2c2nc(CCn3c(C)nc4ccccc43)nn12	inactive: 3.56%
COC(=O)c1c(NC(=O)COc2c(C)ccc(C)c2C)sc2c1CCC(C)C2 (stereo not given)	inactive: -2.13%
CC1=C(C(=O)Nc2cccnc2)C(c2ccc(Cl)cc2)n2nc(SCc3ccccc3)nc2N1 (stereo not given)	inactive: 0.465%
CCCN1CCN(c2ncnc3sc(C(=O)Nc4cccc(Cl)c4C)c(C)c23)CC1	inactive: 1.46%
CCN(CC)c1cc2c(cc1F)c(=O)c(S(=O)(=O)c1ccc(C)cc1)cn2Cc1ccc(F)cc1	inactive: 0.236%

SMILES	activity change, negative = cytotoxicity
CCOc1ccc(NC(=O)[C@H](Cc2ccccc2)N2Cc3ccccc3C2=O)cc1	inactive: 0.709%
O=C(Cn1ncc2ccsc2c1=O)N1CCN(c2ccccc2)CC1	inactive: 1.1%
CCCSc1nc2c(c(=O)[nH]1)C(c1ccc(F)cc1F)CC(=O)N2 (stereo not given)	inactive: -8.86%
CC(=O)N1CCC(N(Cc2ccco2)C(=O)Nc2ccc(Br)cc2F)CC1	inactive: -6.87%
O=C(CC1N=C2c3ccccc3N=C(SCc3ccccc3Cl)N2C1=O)NCc1cccs1 (stereo not given)	inactive: 3.41%
COc1ccc(C(=O)NNc2ncnc3c2cnn3-c2ccccc2)cc1	inactive: -2.67%
CCOC(=O)C1CCCN(Cc2cn3c(-c4ccc(Br)cc4)nnc3s2)C1 (stereo not given)	inactive: 1.85%
CCOc1ccc(NC(=O)Cc2ccc(-n3c(C)nc4cccnc43)cc2)cc1	inactive: 0.707%
CN(C(=O)c1ccc2c(c1)N(Cc1ccccc1F)C(=O)c1ccccc1S2(=O)=O)C1CCCCC1	inactive: 14.1%
O=C(Nc1cc(Cl)ccc1Cl)c1cc(S(=O)(=O)N2CCCc3ccccc32)ccc1F	inactive: -9.98%
COC(=O)c1ccccc1NC(=O)CCc1c(C)nc2c(c(C)nn2-c2ccccc2)c1C	inactive: -2.79%
COc1ccc(Cn2ccc3nc(C)c(C(=O)NCc4ccc(OC)cc4OC)cc3c2=O)cc1	inactive: 2.98%
COc1cccc(CNC(=O)CCCn2nc(C)n3c(cc4sccc43)c2=O)c1	inactive: 3.61%
COc1ccc(C2CC(=O)c3c([nH]c(C(=O)OC4CCCCCC4)c3C)C2)cc1OC (stereo not given)	inactive: 25.1%
COc1ccc(-n2nnc(-c3nc(-c4ccccc4C)no3)c2N)cc1Cl	inactive: -0.333%
O=C(Cn1ncc2c([nH]c3ccccc32)c1=O)NCc1cccc(Cl)c1	inactive: -1.17%
CCOC(=O)c1cnc2c(C)cc(Cl)cc2c1NCCc1ccc(OC)c(OC)c1	inactive: 8.23%
CCOC(=O)c1cc(-c2ccc(F)cc2)n(CCC(=O)NCc2ccccc2OC)c1C	inactive: -20.6%
COc1ccc(NC(=O)C(C)n2c(C)c3cnn(-c4ccccc4)c(=O)c3c2C)cc1Cl (stereo not given)	inactive: 3.93%
Cc1cccc(OCC(=O)N(Cc2ccc(C(C)C)cc2)Cc2ccco2)c1C	inactive: -22%
O=C(Nc1nnc(S(=O)(=O)N2CCCC2)s1)c1ccccc1F	inactive: 2.9%
Cc1ccc(N2CC(NC(=O)c3ccco3)CC2=O)cc1C (stereo not given)	inactive: 11.6%
O=C(NCCc1ccccc1)c1ccc(CSc2nc3ccncc3n2Cc2ccccc2F)cc1	inactive: -19.1%
CC(C)COc1ccc(-c2nonc2NC(=O)c2ccc(F)cc2)cc1	inactive: -0.791%

SMILES	activity change, negative = cytotoxicity
O=C(NCC1CCCO1)c1c[nH]c2ccc(S(=O)(=O)Nc3ccc(F)cc3F)cc2c1=O (stereo not given)	inactive: 0.985%
CC(C)(C)c1ccc(-c2nc(S(=O)(=O)c3ccccc3)c(N3CCOCC3)o2)cc1	inactive: 2.79%
COc1ccc(C(=O)Nc2nnc(S(=O)(=O)N3CCC(C)CC3)s2)cc1OC	inactive: 3.37%
O=C(c1cccc(F)c1)N1CCC(c2c[nH]c3ccccc23)(c2c[nH]c3ccccc23)CC1	inactive: 4.99%
CCN(C(=O)C1CCCN(c2ncnc3onc(-c4ccc(F)cc4)c23)C1)c1ccccc1 (stereo not given)	inactive: -2.92%
CCOc1ccc(C(CC(=O)Nc2cc(C)c(Cl)cc2OC)N2Cc3ccccc3C2=O)cc1OC (stereo not given)	inactive: -8.14%
CC1CCCCN1Cc1c(O)ccc2c(=O)c(-c3ccccc3)coc12 (stereo not given)	inactive: 3.4%
Cc1ccc(CNC(=O)c2sc3nc(-c4ccc(F)cc4)ccc3c2N)cc1	inactive: 0.341%
CCOC(=O)C1=C(CN2CCCCC2)NC(=O)NC1c1ccc(C)cc1 (stereo not given)	inactive: 10.3%
COc1cccc(CNC(=O)CN2C(=O)COc3ccc(S(=O)(=O)N4CCCCCC4)cc32)c1	inactive: 3.45%
Cc1ccc(CNC(=O)c2cc3c(s2)-c2ccc(Cl)cc2SC3)cc1	inactive: 7.8%
CN(C)c1ccc(NC(=O)CN2CCN(CC(=O)Nc3ccc(Br)cc3)CC2)cc1	inactive: -5.54%
Cc1ccc(CSC2=Nc3ccccc3C3=NC(CC(=O)NCc4cccs4)C(=O)N23)cc1 (stereo not given)	inactive: -6.8%
CCc1cccc(NC(=O)Cn2c(=O)n(CCC(=O)NCC3CCCO3)c(=O)c3cc(OC)c(OC)cc32)c1 (stereo not given)	inactive: 2.65%
Cc1ccc(-c2nc3ncccc3o2)cc1NC(=O)c1ccccc1Br	inactive: 24.2%
CCc1ccc(C2CC(=O)NC(NC(=O)c3ccc(C(C)(C)C)cc3)=N2)cc1 (stereo not given)	inactive: -4.53%
Cc1c(-c2ccccc2)c(=O)oc2c(CN3CCCC3)c(O)ccc12	inactive: -4.64%
CCOc1ccc(/C=C/c2nc(C#N)c(Nc3ccc(OCC)cc3)o2)cc1	inactive: 4.7%
CC1CC(=O)N(CC(=O)Nc2ccc(F)cc2F)c2ccccc2S1 (stereo not given)	inactive: 8.19%
COc1ccc(NC(=O)Nc2cccc(-c3cn4cccnc4n3)c2)cc1	inactive: 14.9%
O=C(NCCc1ccc(Cl)cc1)c1ccc2c(c1)N(Cc1ccccc1F)C(=O)c1ccccc1S2(=O)=O	inactive: 1.09%
Cc1nc2ccn(Cc3ccccc3)c(=O)c2cc1C(=O)NCc1ccccc1F	inactive: 10.9%
Cc1noc(C)c1S(=O)(=O)N1CCCC(C(=O)Nc2ccc(C(C)C)cc2)C1 (stereo not given)	inactive: 0.0312%
